PubChem BioAssay AID1347165 (National Center for Advancing Translational Sciences (NCATS), 2019)
The campaign covered roughly 220,000 compounds. About 5,700 (2.6%) were called active. This list was built around the results that the source calls inconclusive (neither active nor inactive); the mix of calls is not that of the screen. Calls follow the shape of the dose curve; as a rule, active = well fitted inhibition curve with a large enough effect; inconclusive = small, poorly fitted or top-dose-only effect; inactive = no such curve, though single readings can be large or run the other way. Where the call is inconclusive, the potency comes from a doubtful curve fit.
Also: nearly all actives have a fitted effect of over 70% in size.
For activity change, negative = inhibition in this document: 0% is about no effect.
Potency is read from the fitted curve at half-maximal effect; tags tell the direction and shape of the fitted curve.

Each molecule was assayed against Lysine-specific demethylase 5B (Homo sapiens) (UniProt Q9UGL1) (assay: Primary screen for KDM5B Histone Demethylases FDH-coupled qHTS). Settings: FDH-coupled NADH fluorescence (FDH is formaldehyde dehydrogenase); activity change, negative = inhibition: at 57.7 µM (top of the series) unless noted.
Sequence of UniProt Q9UGL1 (Q9UGL1 whole entry, looked up): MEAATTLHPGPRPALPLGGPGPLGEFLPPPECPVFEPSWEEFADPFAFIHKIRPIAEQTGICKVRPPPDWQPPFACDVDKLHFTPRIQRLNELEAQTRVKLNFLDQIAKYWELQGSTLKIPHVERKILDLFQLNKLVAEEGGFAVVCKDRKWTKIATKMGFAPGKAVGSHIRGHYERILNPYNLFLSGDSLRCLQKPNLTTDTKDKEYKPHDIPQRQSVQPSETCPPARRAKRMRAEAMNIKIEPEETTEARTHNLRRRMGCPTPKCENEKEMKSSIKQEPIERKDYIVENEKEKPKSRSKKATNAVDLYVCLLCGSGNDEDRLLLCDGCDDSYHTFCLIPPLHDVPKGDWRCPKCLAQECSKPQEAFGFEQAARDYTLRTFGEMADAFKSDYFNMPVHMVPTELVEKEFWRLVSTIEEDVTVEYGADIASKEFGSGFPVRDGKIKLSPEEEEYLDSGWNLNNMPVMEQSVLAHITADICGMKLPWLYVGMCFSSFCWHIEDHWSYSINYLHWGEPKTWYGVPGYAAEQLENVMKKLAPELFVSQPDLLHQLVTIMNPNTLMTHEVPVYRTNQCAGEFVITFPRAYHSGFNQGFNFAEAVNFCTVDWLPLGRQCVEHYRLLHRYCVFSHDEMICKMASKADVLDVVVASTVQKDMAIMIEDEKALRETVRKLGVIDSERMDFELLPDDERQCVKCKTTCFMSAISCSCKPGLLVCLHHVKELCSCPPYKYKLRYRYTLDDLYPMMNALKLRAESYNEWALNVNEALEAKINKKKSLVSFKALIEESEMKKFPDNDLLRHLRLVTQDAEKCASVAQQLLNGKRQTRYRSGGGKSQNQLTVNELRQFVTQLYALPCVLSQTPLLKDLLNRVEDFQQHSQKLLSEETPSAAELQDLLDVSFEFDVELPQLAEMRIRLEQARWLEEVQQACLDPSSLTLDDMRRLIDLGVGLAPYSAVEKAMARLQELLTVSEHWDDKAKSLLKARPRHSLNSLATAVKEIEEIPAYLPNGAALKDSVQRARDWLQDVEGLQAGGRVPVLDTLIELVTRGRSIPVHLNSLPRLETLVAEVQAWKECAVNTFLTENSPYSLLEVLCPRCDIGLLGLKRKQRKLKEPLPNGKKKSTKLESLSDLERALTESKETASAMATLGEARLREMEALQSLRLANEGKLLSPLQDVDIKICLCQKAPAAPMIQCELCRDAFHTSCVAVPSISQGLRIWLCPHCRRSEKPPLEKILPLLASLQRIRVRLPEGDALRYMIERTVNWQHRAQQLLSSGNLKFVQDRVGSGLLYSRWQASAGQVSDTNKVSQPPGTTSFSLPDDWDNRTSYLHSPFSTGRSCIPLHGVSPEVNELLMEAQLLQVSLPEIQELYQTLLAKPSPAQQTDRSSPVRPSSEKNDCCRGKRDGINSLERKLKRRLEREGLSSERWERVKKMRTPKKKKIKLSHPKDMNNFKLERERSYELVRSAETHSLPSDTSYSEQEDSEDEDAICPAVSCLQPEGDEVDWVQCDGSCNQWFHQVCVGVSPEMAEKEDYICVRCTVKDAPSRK
How it was run: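 Compound dilutions met 200 nM (final) KDM5BΔAP for 10 min at room temperature before substrate addition. The substrate mix held 12.5 µM H3K4me3 with cofactors 25 µM α-ketoglutarate and 50 µM Fe²⁺. NADH signal gain over 30 min defined activity.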
In the case of `O=C(Nc1cccc(Br)c1)c1ccc2c(c1)CCC2`, the Potency is reported as “inactive”.
In the case of `c1ccc(CN2CCC(N3CC(OCC4CC4)C34CCOCC4)CC2)cc1` (stereo not drawn), the Potency is reported as “inactive”.
In the case of `CN(C)S(=O)(=O)c1ccc2c(c1)N(CC(=O)N1CCCCC1)CCS2`, the Potency is reported as inconclusive: 17.8 µM [inhibitor, partial curve, poor fit].
With `Cc1ccc(-c2nnc(Nc3ccc(Cl)cc3)c3ccccc23)cc1S(=O)(=O)N1CCOCC1` the Potency was inconclusive: 25.1 µM [inhibitor, partial curve, poor fit].
`O=C(NC1CCN(c2cc(-c3ccccc3)[nH]n2)C1)c1ccccc1Cl` (stereo not drawn) was tested, and the Potency was “inactive”.
In the case of `CN(C(=O)c1ccc2c(c1)N(Cc1ccccc1F)C(=O)c1ccccc1S2)C1CCCCC1`, the activity change, negative = inhibition is reported as inconclusive: -32.8% [inhibitor].
`COc1ccccc1N1CCN(c2nc3ccc(C)cc3nc2-n2nc(C)cc2C)CC1` was tested, and the Potency was inconclusive: 31.6 µM [inhibitor, partial curve, poor fit].
`CCOC(=O)c1c(C)n(-c2ccccc2)c2ccc(OC(=O)c3ccc(OCC)c(OCC)c3)cc12` was tested, and the Potency was inconclusive: 35.5 µM [inhibitor, single point].
`CCC1=C(C(=O)OC)C(c2ccccc2F)N2C(CC(=O)NCCc3cccs3)=CSC2=N1` (stereo not drawn) was tested, and the Potency was inconclusive: 31.6 µM [inhibitor, partial curve, poor fit].
With `Cn1cc(C2c3ccccc3C(=O)N2CC(=O)NCC(N)=O)c2ccccc21` (stereo not drawn) the Potency was “inactive”.
For `COc1ccc(CN2C[C@H](O)C[C@H]2c2nc(CS(=O)(=O)c3ccc(F)cc3)no2)cc1`, the Potency was inconclusive: 35.5 µM [inhibitor, single point].
In the case of `CCC(=O)N(C1CCOCC1)C1CCN(Cc2ccc(C)cc2)CC1`, the Potency is reported as “inactive”.
With `CC(C)NC(=O)N1CCN(C2CCNCC2)C(=O)C1` the Potency was inconclusive: 100 µM [inhibitor, partial curve, poor fit].
With `CCCOc1ccc(OC(=O)c2c(-c3ccccc3Cl)noc2C)cc1` the Potency was “inactive”.
In the case of `COc1ccc(C(=O)N2CCc3nc(C)nc(-c4ccc(OC)cc4)c3C2)cc1`, the Potency is reported as inconclusive: 25.1 µM [inhibitor, single point].
In the case of `COc1ccc(C2=Nn3c(nc4sc(C(=O)Nc5cccc(C)c5)c(C)c4c3=O)SC2)cc1`, the Potency is reported as inconclusive: 17.8 µM [inhibitor, partial curve, poor fit].
With `COc1ccc(NC(=O)c2ccc3c(c2)c(C)c(C)n3Cc2ccc(F)cc2)c(OC)c1` the Potency was inconclusive: 25.1 µM [inhibitor, partial curve, poor fit].
With `COc1ccc(C(=O)N[C@H]2COC[C@H]2Cc2cc(C)no2)c(F)c1F` the Potency was inconclusive: 6.31 µM [inhibitor, single point].
